Source: patent US7745575B1 (Cellpep Pharma Inc., priority 2004, dated 2010)
Ends that are not written are not given here.

Legend:
[1] = target: hIK1 (human (only by the printed prefix h)) (UniProt O15554)
[2] = target: hKv1.2 (human (only by the printed prefix h)) (UniProt P16389)
[3] = target: mKv1.1 (mouse (only by the printed prefix m)) (UniProt P16388)
[4] = target: mKv1.3 (mouse (only by the printed prefix m)) (UniProt P16390)
[5] = target: hKv3.2 (human (only by the printed prefix h)) (UniProt Q96PR1)
mKv1.1 = mKv1.1 (mouse (only by the printed prefix m), UniProt P16388); experiment: cell-based or functional assay
hKv1.2 = hKv1.2 (human (only by the printed prefix h), UniProt P16389); experiment: cell-based or functional assay
mKv1.3 = mKv1.3 (mouse (only by the printed prefix m), UniProt P16390); experiment: cell-based or functional assay
hKv3.2 = target: T1, hKv3.2 (human (only by the printed prefix h), UniProt Q96PR1); experiment: cell-based or functional assay
T1 sequence: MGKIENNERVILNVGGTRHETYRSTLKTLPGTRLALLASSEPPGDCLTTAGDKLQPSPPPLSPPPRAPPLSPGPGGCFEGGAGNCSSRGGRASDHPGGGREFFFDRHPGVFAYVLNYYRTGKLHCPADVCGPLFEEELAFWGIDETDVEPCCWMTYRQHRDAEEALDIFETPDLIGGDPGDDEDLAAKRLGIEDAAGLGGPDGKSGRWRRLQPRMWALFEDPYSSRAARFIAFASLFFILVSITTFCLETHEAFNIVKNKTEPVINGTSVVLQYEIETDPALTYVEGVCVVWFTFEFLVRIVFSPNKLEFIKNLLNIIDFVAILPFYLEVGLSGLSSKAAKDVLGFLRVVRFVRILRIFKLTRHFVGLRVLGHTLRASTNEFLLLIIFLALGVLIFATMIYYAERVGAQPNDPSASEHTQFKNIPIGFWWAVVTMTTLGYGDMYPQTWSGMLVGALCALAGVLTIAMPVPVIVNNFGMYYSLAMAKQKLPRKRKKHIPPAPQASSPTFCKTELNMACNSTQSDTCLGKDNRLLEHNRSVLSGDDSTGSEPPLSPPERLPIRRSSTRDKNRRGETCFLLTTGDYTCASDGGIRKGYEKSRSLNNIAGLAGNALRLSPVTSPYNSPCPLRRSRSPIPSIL

hIK1 = hIK1 (human (only by the printed prefix h), UniProt O15554); experiment: cell-based or functional assay

Molecule	ID50 [1] [nM]	ID50 [2] [nM]	ID50 [3] [nM]	ID50 [4] [nM]	ID50 [5] [nM]	ID50 (mKv1.1) [nM]	ID50 (hKv1.2) [nM]	ID50 (mKv1.3) [nM]	ID50 (hKv3.2) [nM]	ID50 (hIK1) [nM]
[Y^36]-AOsK1 (peptide)	885	232	34.4	0.122						
[Δ^36-38]-AOsK1 (peptide)	> 1000	> 1000	366	1.85	> 1000					
GVIINVKCKISRQCLKPCKDAGMRFGKCMNRKCHCTPK (ends and bridges not checked; cysteine pairing not given here) [[R^31]-AOsK1]						0.28	0.43	0.045	220	
Ac-GVIINVKCKISKQCLKPCRDAGMRFGKCMNGKCHCTPK (ends and bridges not checked) [Ac-[K^12,R^19]-AOsK1]						2.76	101	0.09	1500	
GVIINVKCKISPQCLKPCKDAGMRFGKCMNGKCHCTPK (ends and bridges not checked; cysteine pairing not given here) [[P^12]-AOsK1]						3.18	196	0.059		2600
GVIINVKCKISRQCLKPCKDAGMRNGKCMNGKCHCTPK (ends and bridges not checked; cysteine pairing not given here) [[N^25]-AOsK1]						791	212	5.4	> 1000	
